# The supplement of paper PMC8728848
# The list shows a part of the results.
# B1: Galatrox (Botrops atrox), P0DM53 (protein)
# chain: NNCPQDWLPMNGLCYKIFDELKAWKDAEMFCRKYKPGCHLASIILYGESPEWAEGHSEVWLGLWDKKKDFSWEWTDR
# Key:
# Test in all cases: glycan array binding signal (z-score within array); higher = stronger binding
# Settings in all cases: glycan notation: IUPAC condensed, linker removed
# [1] = target: Neu5Ac(a2-6)Gal(b1-4)GlcNAc(b1-2)Man(a1-3)Man(b1-4)GlcNAc(b1-4)GlcNAc
# Method in brief: (§1)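 Glycan array binding is given as a within-array Z-score, which can be read as non-binding when negative. The arrays, 3228 of them, came from the Consortium for Functional Glycomics database and were retained only where the protein sequence was available. Z-scores were averaged across arrays of the same protein sequence at different concentrations or buffers and across linkers.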
# [2] = target: Neu5Ac(a2-6)Gal(b1-4)GlcNAc(b1-2)Man(a1-3)[Gal(b1-4)GlcNAc(b1-2)Man(a1-6)]Man(b1-4)GlcNAc(b1-4)GlcNAc
# Method in brief: as §1
# [3] = target: Neu5Ac(a2-6)Gal(b1-4)GlcNAc(b1-2)Man(a1-3)[GlcNAc(b1-2)Man(a1-6)]Man(b1-4)GlcNAc(b1-4)GlcNAc
# Method in brief: as §1
# [4] = target: Neu5Ac(a2-6)Gal(b1-4)GlcNAc(b1-2)Man(a1-3)[GlcNAc(b1-2)Man(b1-4)GlcNAc(b1-2)Man(a1-6)]Man(b1-4)GlcNAc(b1-4)GlcNAc
# Method in brief: as §1
# [5] = target: Neu5Ac(a2-6)Gal(b1-4)GlcNAc(b1-2)Man(a1-3)[Man(a1-6)]Man(b1-4)GlcNAc(b1-4)GlcNAc
# Method in brief: as §1
# [6] = target: Neu5Ac(a2-6)Gal(b1-4)GlcNAc(b1-2)Man(a1-3)[Neu5Ac(a2-6)Gal(b1-4)GlcNAc(b1-2)Man(a1-6)]Man(b1-4)GlcNAc(b1-4)GlcNAc
# Method in brief: as §1
# [7] = target: Neu5Ac(a2-6)Gal(b1-4)GlcNAc(b1-2)Man(a1-6)Man(b1-4)GlcNAc(b1-4)GlcNAc
# Method in brief: as §1
# [8] = target: Neu5Ac(a2-6)Gal(b1-4)GlcNAc(b1-2)Man(a1-6)[Gal(b1-4)GlcNAc(b1-2)Man(a1-3)]Man(b1-4)GlcNAc(b1-4)GlcNAc
# Method in brief: as §1
# [9] = target: Neu5Ac(a2-6)Gal(b1-4)GlcNAc(b1-2)Man(a1-6)[GlcNAc(b1-2)Man(a1-3)]Man(b1-4)GlcNAc(b1-4)GlcNAc
# Method in brief: as §1
# [10] = target: Neu5Ac(a2-6)Gal(b1-4)GlcNAc(b1-2)Man(a1-6)[Man(a1-3)]Man(b1-4)GlcNAc(b1-4)GlcNAc
# Method in brief: as §1
# [11] = target: Neu5Ac(a2-6)Gal(b1-4)GlcNAc(b1-3)Gal(b1-3)GlcNAc
# Method in brief: as §1
# [12] = target: Neu5Ac(a2-6)Gal(b1-4)GlcNAc(b1-3)Gal(b1-4)GlcNAc
# Method in brief: as §1
# [13] = target: Neu5Ac(a2-6)Gal(b1-4)GlcNAc(b1-3)Gal(b1-4)GlcNAc(b1-3)Gal(b1-4)GlcNAc
# Method in brief: as §1
# [14] = target: Neu5Ac(a2-6)Gal(b1-4)GlcNAc(b1-3)Gal(b1-4)[Fuc(a1-3)]GlcNAc(b1-3)Gal(b1-4)[Fuc(a1-3)]GlcNAc
# Method in brief: as §1
# [15] = target: Neu5Ac(a2-6)Gal(b1-4)GlcNAc(b1-3)GalNAc
# Method in brief: as §1
# [16] = target: Neu5Ac(a2-6)Gal(b1-4)GlcNAc6S
# Method in brief: as §1
# Neu5Ac(a2-6)GalNAc = target: Neu5Ac(a2-6)GalNAc
# Method in brief: as §1
# [17] = target: Neu5Ac(a2-6)GalNAc(b1-4)GlcNAc
# Method in brief: as §1
# [18] = target: Neu5Ac(a2-6)GlcNAc(b1-4)GlcNAc
# Method in brief: as §1
# [19] = target: Neu5Ac(a2-6)GlcNAc(b1-4)GlcNAc(b1-4)GlcNAc
# Method in brief: as §1
# Neu5Ac(a2-8)Neu5Ac = target: Neu5Ac(a2-8)Neu5Ac
# Method in brief: as §1
# [20] = target: Neu5Ac(a2-8)Neu5Ac(a2-3)Gal(b1-4)Glc
# Method in brief: as §1
# [21] = target: Neu5Ac(a2-8)Neu5Ac(a2-3)[GalNAc(b1-4)]Gal(b1-4)Glc
# Method in brief: as §1
# [22] = target: Neu5Ac(a2-8)Neu5Ac(a2-8)Neu5Ac
# Method in brief: as §1
# [23] = target: Neu5Ac(a2-8)Neu5Ac(a2-8)Neu5Ac(a2-3)Gal(b1-4)Glc
# Method in brief: as §1
# [24] = target: Neu5Ac(a2-8)Neu5Ac(a2-8)Neu5Ac(a2-3)[GalNAc(b1-4)]Gal(b1-4)Glc
# Method in brief: as §1
# [25] = target: Neu5Ac(a2-8)Neu5Ac(a2-8)Neu5Ac(a2-8)Neu5Ac(a2-3)[GalNAc(b1-4)]Gal(b1-4)Glc
# Method in brief: as §1
# [26] = target: Neu5Ac(b2-6)Gal(b1-4)GlcNAc
# Method in brief: as §1
# Neu5Ac(b2-6)GalNAc = target: Neu5Ac(b2-6)GalNAc
# Method in brief: as §1
# [27] = target: Neu5Ac9Ac(a2-3)Gal(b1-3)GlcNAc
# Method in brief: as §1
# [28] = target: Neu5Ac9Ac(a2-3)Gal(b1-4)GlcNAc
# Method in brief: as §1
# [29] = target: Neu5Ac9Ac(a2-6)Gal(b1-4)GlcNAc
# Method in brief: as §1
# [30] = target: Neu5Gc(a2-3)Gal(b1-3)GlcNAc
# Method in brief: as §1
# [31] = target: Neu5Gc(a2-3)Gal(b1-3)[Fuc(a1-4)]GlcNAc
# Method in brief: as §1
# Neu5Gc(a2-3)Gal(b1-4)Glc = target: Neu5Gc(a2-3)Gal(b1-4)Glc
# Method in brief: as §1
# [32] = target: Neu5Gc(a2-3)Gal(b1-4)GlcNAc
# Method in brief: as §1
# [33] = target: Neu5Gc(a2-3)Gal(b1-4)[Fuc(a1-3)]GlcNAc
# Method in brief: as §1
# [34] = target: Neu5Gc(a2-6)Gal(b1-4)GlcNAc
# Method in brief: as §1
# Neu5Gc(a2-6)GalNAc = target: Neu5Gc(a2-6)GalNAc
# Method in brief: as §1
# [35] = target: Neu5Gc(b2-6)Gal(b1-4)GlcNAc
# Method in brief: as §1
binder,measurement,setting,value
B1,glycan array binding signal (z-score),[1],0.146
same,glycan array binding signal (z-score),[2],0.4
same,glycan array binding signal (z-score),[3],-0.355
same,glycan array binding signal (z-score),[4],-0.348
same,glycan array binding signal (z-score),[5],-0.301
same,glycan array binding signal (z-score),[6],-0.076
same,glycan array binding signal (z-score),[7],-0.368
same,glycan array binding signal (z-score),[8],0.771
same,glycan array binding signal (z-score),[9],-0.303
same,glycan array binding signal (z-score),[10],-0.323
same,glycan array binding signal (z-score),[11],-0.288
same,glycan array binding signal (z-score),[12],-0.357
same,glycan array binding signal (z-score),[13],-0.297
same,glycan array binding signal (z-score),[14],0.033
same,glycan array binding signal (z-score),[15],-0.275
same,glycan array binding signal (z-score),[16],-0.244
same,glycan array binding signal (z-score),Neu5Ac(a2-6)GalNAc,-0.362
same,glycan array binding signal (z-score),[17],-0.376
same,glycan array binding signal (z-score),[18],-0.269
same,glycan array binding signal (z-score),[19],-0.363
same,glycan array binding signal (z-score),Neu5Ac(a2-8)Neu5Ac,-0.357
same,glycan array binding signal (z-score),[20],-0.365
same,glycan array binding signal (z-score),[21],-0.197
same,glycan array binding signal (z-score),[22],-0.36
same,glycan array binding signal (z-score),[23],-0.366
same,glycan array binding signal (z-score),[24],-0.343
same,glycan array binding signal (z-score),[25],-0.313
same,glycan array binding signal (z-score),[26],-0.369
same,glycan array binding signal (z-score),Neu5Ac(b2-6)GalNAc,-0.367
same,glycan array binding signal (z-score),[27],-0.374
same,glycan array binding signal (z-score),[28],-0.371
same,glycan array binding signal (z-score),[29],-0.323
same,glycan array binding signal (z-score),[30],-0.368
same,glycan array binding signal (z-score),[31],-0.369
same,glycan array binding signal (z-score),Neu5Gc(a2-3)Gal(b1-4)Glc,-0.369
same,glycan array binding signal (z-score),[32],-0.362
same,glycan array binding signal (z-score),[33],-0.36
same,glycan array binding signal (z-score),[34],-0.367
same,glycan array binding signal (z-score),Neu5Gc(a2-6)GalNAc,-0.372
same,glycan array binding signal (z-score),[35],-0.341
